# Measured values taken from PubChem BioAssay AID1347073 (National Center for Advancing Translational Sciences (NCATS), 2019).
# Among all 45,000 compounds or so, about 200 (0.44%) were called active. Roughly 7% stayed inconclusive and do not appear here. The call rests on the fitted dose curve; in most records, active means well fitted activation curve with a large enough effect; inconclusive means small, poorly fitted or top-dose-only effect; inactive means no such curve, though single readings can be large or run the other way. Some of the results follow.
# Assay: qHTS of TDP-43 Inhibitors: NCGC Sytravon Library Screen; further: 0% is about no effect; nearly all actives have a fitted effect of over 55% in size
# Settings: yeast TDP-43 toxicity rescue, BacTiter-Glo growth, 24 h; series mostly up to 46.1 µM; growth rescue (activation): at the top concentration
# Summary of the method: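 TDP-43-expressing yeast, pregrown in raffinose, seeded at OD600 0.02 in galactose medium with compound for 24 hr at 30 deg C. Growth read by BacTiter-Glo luminescence, so rescue of toxicity appears as activation.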
row,Structure (SMILES),growth rescue (activation)
1,COc1ccc(C(C(=O)NCc2ccccc2)N(C(=O)c2snc(C(N)=O)c2N)c2ccccc2OC)cc1 (stereo unspecified),inactive: -28%
2,CCOC(=O)Cn1cc(/C=C(/C#N)C(=O)NC(C)C)c2ccccc21,inactive: 10%
3,Cc1ccnc(SCC(=O)Nc2cccc(S(=O)(=O)N3CCOCC3)c2)n1,inactive: -12.9%
4,CC1CCCCN1C(=O)CSc1nnc(-c2ccccc2O)o1 (stereo unspecified),inactive: 37.5%
5,COCCN1CCN(C(=O)C2CCC(=O)N(CCc3ccc(Cl)cc3)C2)CC1 (stereo unspecified),inactive: 5.71%
6,CCc1ccccc1-n1c(SCC(=O)N2CCCC2)nc2[nH]ncc2c1=O,inactive: -7.71%
7,COc1ccc(NS(=O)(=O)c2cccc(C(=O)N/N=C/c3ccc4c(c3)OCCO4)c2)cc1,inactive: -5.99%
8,O=C(Nc1ccccc1N1CCOCC1)c1cccc(NS(=O)(=O)c2ccc(F)c(F)c2)c1,inactive: -0.631%
9,COC(=O)C(CSCc1ccccc1)NC(=O)CSc1nc(N)cc(=O)[nH]1 (stereo unspecified),inactive: 7.41%
10,COc1ccccc1NC(=O)c1cc([N+](=O)[O-])ccc1NCCN1C(=O)CCC1=O,inactive: 11.1%
11,CSc1ccccc1NC(=O)CN(c1ccccc1)S(=O)(=O)N(C)C,inactive: -9.71%
12,CC(C)(C)c1nnc2sc(SCC(O)=C(C#N)c3nc4ccccc4[nH]3)nn2c1=O,inactive: 2.04%
13,CN(CC(=O)NCc1ccc(F)cc1)Cc1ccc(Br)cc1,inactive: -6.93%
14,CNS(=O)(=O)c1ccc2c(c1)NC(=O)C1CCCN21 (stereo unspecified),inactive: -22.8%
15,O=C(COC(=O)c1ccccc1Br)NCC1CCCCC1,inactive: -5.98%
16,COc1ccc(C(=O)/C=C/Nc2ccc(S(=O)(=O)Nc3cccc(C(C)=O)c3)cc2)cc1,inactive: 13.2%
17,CC(C)(C)CNC(=O)C1(C)CCN1C(=O)Cc1ccc(C(C)(C)C)cc1 (stereo unspecified),inactive: -6.28%
18,CCC(=O)N1CCc2cc(Br)cc(S(=O)(=O)NCCCN(CC)Cc3ccccc3)c21,inactive: -5.69%
19,CC(C)Nc1nnc(SC(C)C(=O)NCc2ccc3c(c2)OCO3)s1 (stereo unspecified),inactive: -3.88%
20,CN(C(=O)COC(=O)c1ccc(S(=O)(=O)N2CCOCC2)cc1)c1ccccc1,inactive: 5.87%
21,Cc1ccccc1OCc1nnc(SCC(=O)Nc2ccc(N3CCOCC3)cc2)n1C,inactive: -5.1%
22,O=C(c1cccs1)N1CCN(C(=O)c2cn(-c3ccccc3)nc2-c2ccccc2)CC1,inactive: 8.62%

row,Structure (SMILES),growth rescue (activation)
1,Cc1oc2c(cc(NS(=O)(=O)c3ccc(F)cc3)c3ccccc32)c1C(=O)O,inactive: -11.6%
2,C=CCN1C(=O)c2ccccc2C1(O)Cc1ccccc1 (stereo unspecified),inactive: 6.25%
3,CC(=O)c1c(C)oc2ccc(NS(=O)(=O)c3ccccc3)cc12,inactive: 11.9%
4,O=C(Nc1ccc(F)cc1)C1CCCO1 (stereo unspecified),inactive: 7.18%
5,Cc1cccc(OCc2nnc(SC(C)C(=O)O)n2Cc2ccccc2)c1 (stereo unspecified),inactive: 11%
6,Cc1ccc(N(C(=O)Cc2cccs2)C(C(=O)NC2CCCCC2)c2ccccn2)cc1C (stereo unspecified),inactive: 5.67%
7,Cc1ccc(NC(=O)CNc2ccccc2N2CCCC2=O)cc1S(=O)(=O)N1CCOCC1,inactive: 23%
8,COc1ccc(C2/C(=C(/O)c3cnn(-c4ccccc4)c3C)C(=O)C(=O)N2CCN(C)C)cc1OC (stereo unspecified),inactive: 17.3%
9,CN(Cc1ccccc1)c1ccc(N2C(=O)CCCC2=O)cc1[N+](=O)[O-],inactive: 5.18%
10,Cc1cn(CCOc2ccc(Cl)cc2)c(=O)[nH]c1=O,inactive: -0.263%
11,CC1(C(=O)NC2CCCCCC2)CCN1C(=O)C1(c2ccccc2)CC1 (stereo unspecified),inactive: 21.7%
12,OCCCCNCc1cc(Br)ccc1OCc1ccccc1,inactive: -1.12%
13,O=c1c(-c2ccccc2)nnc2sc(COc3ccc(Br)cc3)nn12,inactive: -20%
14,CCOC(=O)/C(=C\c1ccc(OC(F)F)cc1)C1=Nn2c(nnc2-c2ccc(Cl)cc2)SC1,inactive: 9.47%
15,CSCCNC(=O)C1(C)CCN1C(=O)CCc1ccccc1 (stereo unspecified),inactive: 8.36%
16,CCOC(=O)c1c(CCl)nc2ccccc2c1-c1ccccc1,inactive: 8.92%
17,NC(=O)NCc1ccccc1F,inactive: 5.15%
18,COc1cccc(-n2c(=O)c3sccc3n(Cc3cc(=O)n4cc(Cl)ccc4n3)c2=O)c1,inactive: 8.55%
19,O=C(CCN1C(=O)S/C(=C\c2ccccc2)C1=O)N1CCCCC1,inactive: 20.8%
20,NC(=O)/C(=C/c1ccc2c(c1)OCO2)NC(=O)c1ccco1,inactive: -3.32%
21,COc1ccc(NC(=O)CCOc2ccccc2F)cc1S(=O)(=O)N1CCCCC1,inactive: 13.1%
22,Cc1nc2ccccc2n2c(-c3ccccc3)c3c(=O)n(C)c(=O)n(C)c3c12,inactive: 18.9%

row,Structure (SMILES),growth rescue (activation)
1,CCOC(=O)N/N=C\c1ccc(OC(=O)c2ccc3c(c2)OCO3)cc1,inactive: 22.8%
2,CCC(OC(=O)CN1C(=O)c2ccccc2C1=O)C(=O)NC1CCCC1 (stereo unspecified),inactive: -4.83%
3,CCOC(=O)c1[nH]c(C)c(/C(O)=C2\C(=O)C(=O)N(CCCN(C)C)C2c2cccnc2)c1C (stereo unspecified),inactive: -6.72%
4,CC(NC(=O)c1cnc2ccccc2n1)c1ccccc1 (stereo unspecified),inactive: 35.2%
5,Cc1nc(SCC(=O)NC2CCS(=O)(=O)C2)c2c3c(sc2n1)CCC3 (stereo unspecified),inactive: 4.14%
6,CN(c1ccccc1)S(=O)(=O)c1nnc(NC(=O)C2CCCCC2)s1,inactive: 18.6%
7,COc1ccccc1OCCSc1nc2ccc([N+](=O)[O-])cc2s1,inactive: 8.24%
8,NS(=O)(=O)c1ccc(CCNC(=O)CSCc2ccccc2)cc1,inactive: 14.3%
9,c1ccc(-c2nc3nc4ccccc4nc3n2CC2CCCO2)cc1 (stereo unspecified),inactive: 18.2%
10,Cc1ccc(-c2nnn(CC(=O)NCCc3ccc4c(c3)OCO4)n2)cc1,inactive: 16.1%
11,Cn1cnc(S(=O)(=O)N2CCCCC2c2cc(C(=O)Nc3cccc4c3CCCC4)no2)c1 (stereo unspecified),inactive: 2.54%
12,COc1ccccc1NS(=O)(=O)c1cc(C(=O)NCCC(C)C)ccc1F,inactive: 3.72%
13,N#C/C(=C\c1ccc(N2CCOCC2)o1)C(=O)NC1CCCCC1,inactive: 21.9%
14,Cc1cc(C)c2oc(C(=O)Nc3ccc(S(=O)(=O)N4CCCC(C)C4)cc3)cc(=O)c2c1 (stereo unspecified),inactive: 8.94%
15,CC(C)NC(=O)c1cccc2c(-c3ccc(F)c(F)c3)coc12,inactive: 28.2%
16,CCN(CC)S(=O)(=O)c1ccc(Cl)c(NC(=O)COc2ccccc2[N+](=O)[O-])c1,inactive: 1.99%
17,CC(=O)c1ccc(N2Cc3ccccc3C2)cc1,inactive: 0.808%
18,CCc1ccc(OCC(=O)N(Cc2ccco2)Cc2ccccc2Cl)cc1,inactive: 5.15%
19,Cc1ccc(S(=O)(=O)N2CCOCC2)cc1NC(=O)CSc1nnnn1C,inactive: 4.07%
20,CCOC(=O)Cc1nnc(Nc2cc(C)ccc2C)c2ccccc12,inactive: -1.7%
21,COc1cc(Cl)ccc1OCc1cc(C(=O)N(C)C2CC(C)(C)NC(C)(C)C2)no1,inactive: 3.9%
22,COCC1CCN(C(=O)c2ccc(OC)c(OC3CCN(C(C)C)CC3)c2)CC1,inactive: -0.197%
